# Test results as given in the supplement of paper PMC8728848.
# The list shows a part of the results.
# B1: BC2LB (Burholderia cenocepacia), B4EH85_BURCJ (protein)
# chain: MGSSHHHHHHSSGENLYFQGHMSQPFTHDDLYALLQLAGNDATAVQANGDQAVLDRMRQFMTAQLVEKLPQYDVFVDIATIPYSFDVGSWQNKVKTDAAGEVVACTVTWAGAPGVLPGAAAKFGVGAVVNYFSKATPH
# Columns and labels:
# Test in all cases: glycan array binding signal (z-score within array); higher = stronger binding
# Settings in all cases: glycan notation: IUPAC condensed, linker removed
# [1] = target: GlcNAc(a1-6)Gal(b1-4)GlcNAc
# Method in brief: (§1)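 Arrays were curated from the Consortium for Functional Glycomics database, 3228 in total, and kept only where the protein sequence was available. Binding is expressed as a within-array Z-score. This score was averaged across arrays of the same protein sequence at different concentrations or buffers and across linkers, and negative values can be read as non-binding.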
# [2] = target: GlcNAc(b1-2)Gal(b1-3)GalNAc
# Method in brief: as §1
# [3] = target: GlcNAc(b1-2)Man(a1-3)[GlcNAc(b1-2)Man(a1-6)]Man(b1-4)GlcNAc(b1-4)GlcNAc
# Method in brief: as §1
# [4] = target: GlcNAc(b1-2)Man(a1-3)[GlcNAc(b1-2)Man(a1-6)]Man(b1-4)GlcNAc(b1-4)[Fuc(a1-6)]GlcNAc
# Method in brief: as §1
# [5] = target: GlcNAc(b1-2)Man(a1-3)[GlcNAc(b1-4)][GlcNAc(b1-2)Man(a1-6)]Man(b1-4)GlcNAc(b1-4)GlcNAc
# Method in brief: as §1
# [6] = target: GlcNAc(b1-2)Man(a1-3)[GlcNAc(b1-4)][GlcNAc(b1-2)Man(a1-6)]Man(b1-4)GlcNAc(b1-4)[Fuc(a1-6)]GlcNAc
# Method in brief: as §1
# [7] = target: GlcNAc(b1-2)[GlcNAc(b1-4)]Man(a1-3)[GlcNAc(b1-2)Man(a1-6)]Man(b1-4)GlcNAc(b1-4)GlcNAc
# Method in brief: as §1
# [8] = target: GlcNAc(b1-2)[GlcNAc(b1-4)]Man(a1-3)[GlcNAc(b1-4)][GlcNAc(b1-2)Man(a1-6)]Man(b1-4)GlcNAc(b1-4)GlcNAc
# Method in brief: as §1
# [9] = target: GlcNAc(b1-2)[GlcNAc(b1-4)]Man(a1-3)[GlcNAc(b1-4)][GlcNAc(b1-2)[GlcNAc(b1-6)]Man(a1-6)]Man(b1-4)GlcNAc(b1-4)GlcNAc
# Method in brief: as §1
# [10] = target: GlcNAc(b1-2)[GlcNAc(b1-4)]Man(a1-3)[GlcNAc(b1-4)][GlcNAc(b1-2)[GlcNAc(b1-6)]Man(a1-6)]Man(b1-4)GlcNAc(b1-4)[Fuc(a1-6)]GlcNAc
# Method in brief: as §1
# [11] = target: GlcNAc(b1-2)[GlcNAc(b1-6)]Man(a1-6)[GlcNAc(b1-2)Man(a1-3)]Man(b1-4)GlcNAc(b1-4)GlcNAc
# Method in brief: as §1
# [12] = target: GlcNAc(b1-2)[GlcNAc(b1-6)]Man(a1-6)[GlcNAc(b1-2)Man(a1-3)]Man(b1-4)GlcNAc(b1-4)[Fuc(a1-6)]GlcNAc
# Method in brief: as §1
# [13] = target: GlcNAc(b1-2)[GlcNAc(b1-6)]Man(a1-6)[GlcNAc(b1-4)][GlcNAc(b1-2)Man(a1-3)]Man(b1-4)GlcNAc(b1-4)GlcNAc
# Method in brief: as §1
# GlcNAc(b1-3)Fuc = target: GlcNAc(b1-3)Fuc
# Method in brief: as §1
# GlcNAc(b1-3)Gal = target: GlcNAc(b1-3)Gal
# Method in brief: as §1
# [14] = target: GlcNAc(b1-3)Gal(b1-3)GalNAc
# Method in brief: as §1
# GlcNAc(b1-3)Gal(b1-4)Glc = target: GlcNAc(b1-3)Gal(b1-4)Glc
# Method in brief: as §1
# [15] = target: GlcNAc(b1-3)Gal(b1-4)GlcNAc
# Method in brief: as §1
# [16] = target: GlcNAc(b1-3)Gal(b1-4)GlcNAc(b1-2)Man(a1-3)[GlcNAc(b1-3)Gal(b1-4)GlcNAc(b1-2)Man(a1-6)]Man(b1-4)GlcNAc(b1-4)GlcNAc
# Method in brief: as §1
# [17] = target: GlcNAc(b1-3)Gal(b1-4)GlcNAc(b1-2)Man(a1-3)[GlcNAc(b1-3)Gal(b1-4)GlcNAc(b1-2)Man(a1-6)]Man(b1-4)GlcNAc(b1-4)[Fuc(a1-6)]GlcNAc
# Method in brief: as §1
# [18] = target: GlcNAc(b1-3)Gal(b1-4)GlcNAc(b1-2)[GlcNAc(b1-3)Gal(b1-4)GlcNAc(b1-6)]Man(a1-6)[GlcNAc(b1-3)Gal(b1-4)GlcNAc(b1-2)Man(a1-3)]Man(b1-4)GlcNAc(b1-4)GlcNAc
# Method in brief: as §1
# [19] = target: GlcNAc(b1-3)Gal(b1-4)GlcNAc(b1-3)Gal(b1-4)GlcNAc
# Method in brief: as §1
# [20] = target: GlcNAc(b1-3)Gal(b1-4)GlcNAc(b1-3)Gal(b1-4)GlcNAc(b1-2)Man(a1-3)[GlcNAc(b1-3)Gal(b1-4)GlcNAc(b1-3)Gal(b1-4)GlcNAc(b1-2)Man(a1-6)]Man(b1-4)GlcNAc(b1-4)GlcNAc
# Method in brief: as §1
# [21] = target: GlcNAc(b1-3)Gal(b1-4)GlcNAc(b1-3)Gal(b1-4)GlcNAc(b1-2)Man(a1-3)[GlcNAc(b1-3)Gal(b1-4)GlcNAc(b1-3)Gal(b1-4)GlcNAc(b1-2)Man(a1-6)]Man(b1-4)GlcNAc(b1-4)[Fuc(a1-6)]GlcNAc
# Method in brief: as §1
# [22] = target: GlcNAc(b1-3)Gal(b1-4)GlcNAc(b1-3)Gal(b1-4)GlcNAc(b1-2)[GlcNAc(b1-3)Gal(b1-4)GlcNAc(b1-3)Gal(b1-4)GlcNAc(b1-6)]Man(a1-6)[GlcNAc(b1-3)Gal(b1-4)GlcNAc(b1-3)Gal(b1-4)GlcNAc(b1-2)Man(a1-3)]Man(b1-4)GlcNAc(b1-4)[Fuc(a1-6)]GlcNAc
# Method in brief: as §1
# [23] = target: GlcNAc(b1-3)Gal(b1-4)GlcNAc(b1-3)Gal(b1-4)GlcNAc(b1-3)Gal(b1-4)GlcNAc(b1-2)Man(a1-3)[GlcNAc(b1-3)Gal(b1-4)GlcNAc(b1-3)Gal(b1-4)GlcNAc(b1-3)Gal(b1-4)GlcNAc(b1-2)Man(a1-6)]Man(b1-4)GlcNAc(b1-4)GlcNAc
# Method in brief: as §1
# [24] = target: GlcNAc(b1-3)Gal(b1-4)GlcNAc(b1-3)Gal(b1-4)GlcNAc(b1-3)Gal(b1-4)GlcNAc(b1-2)Man(a1-3)[GlcNAc(b1-3)Gal(b1-4)GlcNAc(b1-3)Gal(b1-4)GlcNAc(b1-3)Gal(b1-4)GlcNAc(b1-2)Man(a1-6)]Man(b1-4)GlcNAc(b1-4)[Fuc(a1-6)]GlcNAc
# Method in brief: as §1
# [25] = target: GlcNAc(b1-3)Gal(b1-4)GlcNAc(b1-3)Gal(b1-4)GlcNAc(b1-3)Gal(b1-4)GlcNAc(b1-2)[GlcNAc(b1-3)Gal(b1-4)GlcNAc(b1-3)Gal(b1-4)GlcNAc(b1-3)Gal(b1-4)GlcNAc(b1-6)]Man(a1-6)[GlcNAc(b1-3)Gal(b1-4)GlcNAc(b1-3)Gal(b1-4)GlcNAc(b1-3)Gal(b1-4)GlcNAc(b1-2)Man(a1-3)]Man(b1-4)GlcNAc(b1-4)[Fuc(a1-6)]GlcNAc
# Method in brief: as §1
# [26] = target: GlcNAc(b1-3)Gal(b1-4)GlcNAc(b1-3)Gal(b1-4)GlcNAc(b1-3)Gal(b1-4)GlcNAc(b1-3)Gal(b1-4)GlcNAc(b1-2)Man(a1-3)[GlcNAc(b1-3)Gal(b1-4)GlcNAc(b1-3)Gal(b1-4)GlcNAc(b1-3)Gal(b1-4)GlcNAc(b1-3)Gal(b1-4)GlcNAc(b1-2)Man(a1-6)]Man(b1-4)GlcNAc(b1-4)GlcNAc
# Method in brief: as §1
# [27] = target: GlcNAc(b1-3)Gal(b1-4)GlcNAc(b1-3)Gal(b1-4)GlcNAc(b1-3)Gal(b1-4)GlcNAc(b1-3)Gal(b1-4)GlcNAc(b1-2)Man(a1-3)[GlcNAc(b1-3)Gal(b1-4)GlcNAc(b1-3)Gal(b1-4)GlcNAc(b1-3)Gal(b1-4)GlcNAc(b1-3)Gal(b1-4)GlcNAc(b1-2)Man(a1-6)]Man(b1-4)GlcNAc(b1-4)[Fuc(a1-6)]GlcNAc
# Method in brief: as §1
# [28] = target: GlcNAc(b1-3)Gal(b1-4)GlcNAc(b1-3)Gal(b1-4)GlcNAc(b1-3)Gal(b1-4)GlcNAc(b1-3)Gal(b1-4)GlcNAc(b1-2)[GlcNAc(b1-3)Gal(b1-4)GlcNAc(b1-3)Gal(b1-4)GlcNAc(b1-3)Gal(b1-4)GlcNAc(b1-3)Gal(b1-4)GlcNAc(b1-6)]Man(a1-6)[GlcNAc(b1-3)Gal(b1-4)GlcNAc(b1-3)Gal(b1-4)GlcNAc(b1-3)Gal(b1-4)GlcNAc(b1-3)Gal(b1-4)GlcNAc(b1-2)Man(a1-3)]Man(b1-4)GlcNAc(b1-4)[Fuc(a1-6)]GlcNAc
# Method in brief: as §1
# [29] = target: GlcNAc(b1-3)Gal(b1-4)GlcNAc(b1-3)Gal(b1-4)GlcNAc(b1-3)GalNAc
# Method in brief: as §1
# [30] = target: GlcNAc(b1-3)Gal(b1-4)GlcNAc(b1-3)GalNAc
# Method in brief: as §1
# [31] = target: GlcNAc(b1-3)Gal(b1-4)GlcNAc(b1-3)[GlcNAc(b1-3)Gal(b1-4)GlcNAc(b1-3)]GalNAc
# Method in brief: as §1
# [32] = target: GlcNAc(b1-3)Gal(b1-4)GlcNAc(b1-6)[Gal(b1-3)]GalNAc
# Method in brief: as §1
# [33] = target: GlcNAc(b1-3)Gal(b1-4)GlcNAc(b1-6)[GlcNAc(b1-3)Gal(b1-3)]GalNAc
# Method in brief: as §1
# [34] = target: GlcNAc(b1-3)Gal(b1-4)GlcNAc(b1-6)[GlcNAc(b1-3)]Gal(b1-4)GlcNAc
# Method in brief: as §1
# GlcNAc(b1-3)GalNAc = target: GlcNAc(b1-3)GalNAc
# Method in brief: as §1
# GlcNAc(b1-3)Man = target: GlcNAc(b1-3)Man
# Method in brief: as §1
# [35] = target: GlcNAc(b1-3)[GlcNAc(b1-4)][GlcNAc(b1-6)]GlcNAc
# Method in brief: as §1
# [36] = target: GlcNAc(b1-3)[GlcNAc(b1-6)]Gal(b1-4)GlcNAc
# Method in brief: as §1
# [37] = target: GlcNAc(b1-3)[GlcNAc(b1-6)]GalNAc
# Method in brief: as §1
# [38] = target: GlcNAc(b1-4)Gal(b1-4)GlcNAc
# Method in brief: as §1
# GlcNAc(b1-4)GlcNAc = target: GlcNAc(b1-4)GlcNAc
# Method in brief: as §1
# [39] = target: GlcNAc(b1-4)GlcNAc(b1-4)GlcNAc
# Method in brief: as §1
binder,measurement,setting,value
B1,glycan array binding signal (z-score),[1],-0.123
same,glycan array binding signal (z-score),[2],-0.244
same,glycan array binding signal (z-score),[3],-0.234
same,glycan array binding signal (z-score),[4],-0.301
same,glycan array binding signal (z-score),[5],-0.335
same,glycan array binding signal (z-score),[6],-0.246
same,glycan array binding signal (z-score),[7],-0.229
same,glycan array binding signal (z-score),[8],0.533
same,glycan array binding signal (z-score),[9],-0.172
same,glycan array binding signal (z-score),[10],-0.298
same,glycan array binding signal (z-score),[11],-0.247
same,glycan array binding signal (z-score),[12],-0.233
same,glycan array binding signal (z-score),[13],-0.349
same,glycan array binding signal (z-score),GlcNAc(b1-3)Fuc,-0.17
same,glycan array binding signal (z-score),GlcNAc(b1-3)Gal,-0.363
same,glycan array binding signal (z-score),[14],-0.128
same,glycan array binding signal (z-score),GlcNAc(b1-3)Gal(b1-4)Glc,-0.265
same,glycan array binding signal (z-score),[15],-0.202
same,glycan array binding signal (z-score),[16],-0.274
same,glycan array binding signal (z-score),[17],-0.14
same,glycan array binding signal (z-score),[18],0.039
same,glycan array binding signal (z-score),[19],-0.231
same,glycan array binding signal (z-score),[20],-0.198
same,glycan array binding signal (z-score),[21],-0.217
same,glycan array binding signal (z-score),[22],-0.149
same,glycan array binding signal (z-score),[23],-0.195
same,glycan array binding signal (z-score),[24],-0.07
same,glycan array binding signal (z-score),[25],-0.161
same,glycan array binding signal (z-score),[26],-0.193
same,glycan array binding signal (z-score),[27],0.242
same,glycan array binding signal (z-score),[28],-0.171
same,glycan array binding signal (z-score),[29],-0.251
same,glycan array binding signal (z-score),[30],0.025
same,glycan array binding signal (z-score),[31],-0.092
same,glycan array binding signal (z-score),[32],-0.231
same,glycan array binding signal (z-score),[33],0.053
same,glycan array binding signal (z-score),[34],-0.24
same,glycan array binding signal (z-score),GlcNAc(b1-3)GalNAc,0.413
same,glycan array binding signal (z-score),GlcNAc(b1-3)Man,0.118
same,glycan array binding signal (z-score),[35],-0.059
same,glycan array binding signal (z-score),[36],-0.319
same,glycan array binding signal (z-score),[37],-0.255
same,glycan array binding signal (z-score),[38],-0.284
same,glycan array binding signal (z-score),GlcNAc(b1-4)GlcNAc,-0.001
same,glycan array binding signal (z-score),[39],-0.065
